Reference: PubChem BioAssay AID651567 (National Center for Advancing Translational Sciences (NCATS), 2012)
Screen size: about 1,200 compounds; about 10 (0.8%) were called active. Roughly 4% stayed inconclusive and do not appear here. The call rests on the fitted dose curve; in most records, active means well fitted inhibition curve with a large enough effect; inconclusive means small, poorly fitted or top-dose-only effect; inactive means no such curve, though single readings can be large or run the other way. Some of the results follow.

experiment: qHTS Assay to Find Inhibitors of Chronic Active B-Cell Receptor Signaling: Hit Validation in OCI-Ly3 Assay; settings: OCI-Ly3 IkB-luciferase reporter, Chroma-Glo luminescence, 4 h; series mostly up to 46.1 µM; activity change, negative = inhibition: at the top concentration
In short: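 Readout is dual-colour luminescence: IkB-alpha-luciferase fusion (green) against unfused luciferase (red), plus their ratio, scaled between basal cells and 10 uM MG-132. OCI-Ly3 cells, 0.5% FBS IMDM, compound with doxycycline (80ng/ml solution), 4 hrs at 37C; curves fitted and classed.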
On the % scale 0 is the no-effect control and ±100 the full control effect; potency means the concentration at half of the fitted maximal effect.

Activity change, negative = inhibition, inactive:
COc1ccc(C(=O)NN(C)c2nc(C(F)(F)F)nc3ccccc23)cc1 -3.83%
Cc1nn(C)cc1CNC(=O)COc1ccc(Cl)cc1Cl 0.375%
Cc1nn(Cc2ccccc2)c2c1C(c1ccccc1)C(C#N)=C(N)O2 (configuration not stated) -1.53%
C=CCn1c(SC2CCOC2=O)nc2sc(C)c(C)c2c1=O (configuration not stated) -0.318%
Nc1nc(N)c(N=O)c(OCC2CCCCC2)n1 -0.413%
CC(C)(C)NNC(=S)Nc1cccc(C(F)(F)F)c1 -0.0838%
CC(=O)Nc1ccc(NS(=O)(=O)c2cc(-c3n[nH]c(=O)c4ccccc34)ccc2C)cc1 -2.79%
N#CC1=C(N)OC2=C(CCc3ccccc32)C1c1ccccc1 (configuration not stated) -6.13%
Cc1c(CCC(=O)N[C@@H](CCCNC(N)=O)C(=O)O)c(=O)oc2cc3oc4c(c3cc12)CCCC4 -0.014%
CC1=NN(C(N)=S)C(=O)C1N=Nc1ccccc1 (configuration not stated) -0.825%
COc1ccc(S(=O)(=O)N2c3ccccc3OCC2C)cc1 (configuration not stated) -6.88%
O=C1N[C@H]2CC=C[C@H]2Nc2ccccc21 -1.64%
CCOC(=O)C1CCN(S(=O)(=O)c2c(Cl)ccc3nonc23)CC1 1.28%
Cc1c(CCC(=O)NCCC(=O)O)c(=O)oc2c(C)c3oc4c(c3cc12)CCCC4 0.734%
COc1ccc(NC(=O)C(=O)NCC2CCCN2S(=O)(=O)c2ccc(C)cc2)cc1 (configuration not stated) -2.59%
COc1ccc(C(C)=O)cc1COC(=O)c1ccc(N)c([N+](=O)[O-])c1 -0.216%
CCOC(=O)c1c(C=O)c2sc(C)cc2n1C -0.818%
Cc1ccc2c(c1)C(=O)C(=O)N2CC1COc2ccccc2O1 (configuration not stated) -5.65%
COc1ccccc1N1CCN(C(=O)c2cc(=O)c3cc(C)cc(C)c3o2)CC1 -8.65%
COc1ccc(C(=O)/C=C/c2ccc(O)cc2)c2c1CC(O)C(C)(C)O2 (configuration not stated) -0.966%
O=c1cc(-c2ccccc2)[nH]c2ccc(F)cc12 -2.66%
NC(=S)Nc1nc2ccccc2s1 -5.84%
CC(C)CCOc1ccc(CO[C@@H]2[C@H]3OC(C)(C)O[C@H]3O[C@@H]2C(O)CO)cc1 (some centres not stated) -1.09%
COc1cc(OC)c2c(-c3cccc(-c4ccc(N(C)C)cc4)c3)cc(=O)oc2c1 -8.24%
COc1ccc(S(=O)(=O)NCc2ccccn2)cc1NC(=O)c1ccccc1C -0.0668%
Cc1ccccc1C(=O)Oc1ccc2ccc(O)cc2c1 -2.12%
COc1ccc(C(=O)N2CCc3cc(OC)c(OC)cc3C2c2ccc(OC)c(OC)c2)cc1 (configuration not stated) -0.486%
CC(/C=C/c1ccccc1)=N\NC(=S)NC(C)C -1.53%
N=C1SCC(=O)N1c1ncc(Cc2ccccc2Cl)s1 33.8%
O=C(COc1ccccc1-c1ccccc1)N/N=C/c1cccc2ccccc12 -3.27%
O=C(NN=C1CCCC1)c1n[nH]c2c1CCCC2 -13%
Cc1cc(NC(=O)CSc2nc3ccccc3c(=O)n2C2CCCC2)no1 -3.58%
Cc1ccc(C2=NN(C(=O)CSc3nc(N)cc(N)n3)C(c3ccco3)C2)cc1 (configuration not stated) 0.0305%
OC[C@H]1O[C@@H](n2cnc3c(NC4CCCC4)ncnc32)[C@H](O)[C@@H]1O -1.42%
O=C(N/N=C/c1ccc(Cl)cc1)c1n[nH]c2c1CCCC2 -2.19%
COc1cc2c(cc1OC)-c1cc(Nc3ccc(N(C)C)cc3)nc(=O)n1CC2 -1.8%
Oc1ccccc1N=Nc1ccccc1O -0.679%
COC(=O)Nc1nc2ccc(Sc3ccccc3)cc2[nH]1 1.24%
C=C1C(O)[C@@H]2O[C@]3(CC[C@H](/C=C/C(C)[C@@H]4CC(C)=CC5(O[C@H](C[C@@](C)(O)CO)CCC5O)O4)O3)CC[C@H]2O[C@@H]1C(O)CC(C)[C@H]1OC2(CCCCO2)CCC1C (some centres not stated) -6.02%
CCn1ncc(C2=NOC(C(=O)NCc3ccccc3)C2)c1C (configuration not stated) -1.31%
Cc1c(CCC(=O)N2CCC[C@H]2C(=O)O)c(=O)oc2cc3oc4c(c3cc12)CCCC4 -0.876%
O=C(c1ccc(Br)cc1)c1cc([N+](=O)[O-])ccc1N1CCCCC1 -5.32%
COc1ccc(/C=N/Nc2nccnc2Cl)c(OC)c1 -14.9%
Cc1cccc(OCCCN2C(=O)C(=O)c3cc(C)ccc32)c1 -0.571%
Cc1ccsc1/C=N/NC(=O)c1cc(-c2ccncc2)nc2ccccc12 -5.84%
CC(=O)Nc1ccc(S(=O)(=O)N2CCSc3ccccc32)cc1 0.241%
NC(=S)N=Nc1c(O)n(CCCl)c2ccccc12 -0.383%
CCC(=O)NCc1cc(-c2nn(C)c(=O)c3ccccc23)ccc1OC -3.24%
CCCc1nc([N+](=O)[O-])c(S(=O)(=O)c2ccccc2)n1CC(C)C -25.8%
O=C(/C=C\c1ccccc1)Oc1cccc2cccnc12 -0.0971%
O=C(OCC(O)CO)c1ccccc1Nc1ccnc2cc(Cl)ccc12 (configuration not stated) -4.64%
CCN(CC)S(=O)(=O)c1ccc(N/N=C(\C)c2ccc(OC)cc2O)nc1 -0.838%
CCc1ccccc1NC(=S)N=Nc1c(O)n(C)c2ccc(S(=O)(=O)N3CCOCC3)cc12 -9.04%
Cc1ccc(C2OCC3(CO)COC(c4ccc(C)cc4)N23)cc1 (configuration not stated) -0.266%
COc1cc2c(cc1OC)-c1cc(Nc3ccccc3)nc(=O)n1CC2 -0.124%
Fc1ccc(/C=N/NC2=Nc3cccc4cccc2c34)cc1 -1.29%
O=Cc1ccccc1OCCOc1ccccc1C=O -2.1%
CCCCC[C@H](O)/C=C/C1=C(CCCCCCC(=O)O)C(=O)CC1 -0.832%
Cc1ccc(C(=O)c2cc([N+](=O)[O-])ccc2N2CCCCC2)cc1 -5.17%
COc1ccc(C(=O)/C=C2/c3ccccc3CC(C)(C)N2C)cc1 -1.76%
CC(=O)N1CC(=O)N=C1SCC(=O)Nc1nc(C)c(-c2ccccc2)s1 -4.44%
COC(=O)C1C(O)=C(C=Nc2cccc3ccccc23)C(=O)CC1(C)C (configuration not stated) -0.573%
Cc1cc(C)c2ccc(/C=N/O)nc2c1O -3.1%
Cc1ccc2[nH]c(-c3cccc(F)c3)cc(=O)c2c1 -3.54%
CCOC(=O)CSC1=C(C#N)C(c2ccc(C)o2)CC(=O)N1 (configuration not stated) -2.72%
COCCn1nnnc1C(C(C)C)N(Cc1ccccc1)Cc1cc2cc(OC)ccc2[nH]c1=O (configuration not stated) -1.07%
COc1cc(OC)cc(C(=O)NCC(=O)N2CC=C(c3ccccc3)CC2)c1 -2.46%
COC(=O)C1=C(C)NC(C)=C(C(=O)OC)C1c1ccc(N(C)C)cc1 -0.707%
Cc1cccc(N(C)S(=O)(=O)c2ccc(-c3cc(C)no3)s2)c1 -6.23%
COc1cc2nc(=S)n3[nH]c(CCn4nc(C)cc4C)nc3c2cc1OC -0.711%
CCCC(=O)Nc1ccc2c(c1)nc(CN1CCN(C(=O)OCC)CC1)n2CC 0.0124%
OC(C#Cc1ccccn1)c1cccs1 (configuration not stated) -1.31%
Cc1cccc(NC(=S)NNC(=O)CCn2cc(C)cn2)c1 -0.56%
CCOc1ccc(NCc2ccccc2OCc2cccc(F)c2)cc1 -3.97%
C[C@]12CCC(=O)C=C1CC[C@@H]1[C@@H]2[C@@H](O)C[C@@]2(C)[C@H]1CC[C@]2(O)C(=O)CO -0.458%
CCCCC1C(=O)CC[C@H]2[C@@H]1CC(=O)[C@@H]2C/C=C\CCCC(=O)O (some centres not stated) -5.28%
COc1cc2c(cc1OC)C1=CC(=O)C(=O)N1C(C)(C)C2 -0.787%
Cc1ccc(C(=O)Nc2ncc(Cc3ccc(SC(F)F)cc3)s2)cc1 -0.644%
COc1ccc(/C=N/NC(=O)c2[nH]c3ccc(C)cc3c2-c2ccccc2)c(C(=O)O)c1OC -0.812%
CCOc1ccccc1NS(=O)(=O)c1ccc(-c2cnc(C3CC3)o2)cc1 -4.32%
CN1CCN(C(c2ccccn2)c2cc(Cl)c3cccnc3c2O)CC1 (configuration not stated) -9.54%
CCOc1cc(CNc2ccc3c(c2)OCCO3)cc(Br)c1OCC -7.23%
N#CC1=C(N)Oc2cc(N)ccc2C1c1cccc(Br)c1 (configuration not stated) -16.8%
Cc1ccc(/C=N/NC(=O)C2COc3ccccc3O2)s1 (configuration not stated) -0.509%
Cn1cccc1/C=C1\SC(=Nc2ccc(O)cc2)NC1=O 15.8%
COc1c(Br)cc(Br)cc1/C=N/NC(=O)c1cccnc1 -0.0712%
CCOC(=O)C1=C(C)NC(C)=C(C(=O)OCC)C1/C=C/c1ccccc1 -3.69%
COc1ccc(N(CC(=O)NC2CCCC2)C(=O)Cn2nnc(-c3ccc(OC)c(OC)c3)n2)c(OC)c1 0.0475%
COc1cc(-c2noc(C)c2-c2ccc3[nH]ccc3c2)cc(OC)c1OC -18.4%
CCOc1ccc(S(=O)(=O)N(CC(=O)NN=C2CCN(C)CC2)c2ccc(C)cc2)cc1 0.165%
CCOC(=O)c1[nH]c(C)c(C(=O)N2CCc3ccccc32)c1C -1.95%
CCOC(=O)c1[nH]c2c(c1C)C(=O)CC(c1ccc(F)cc1)C2 (configuration not stated) -0.272%
CCCCOc1ccccc1NC(=O)Cn1c(-c2nonc2N)nc2ccccc21 0.738%
O=C(O)c1ccc(CSc2nnc(-c3ccco3)o2)cc1 -0.305%
COc1ccc(CC(=O)OCC(=O)c2c[nH]c3ccccc23)cc1 -2.12%
COc1cccc(-c2cc(=O)c3cc(NC(=O)c4ccc(N(C)C)cc4)ccc3[nH]2)c1 -0.593%
Cc1ccc(-c2oc3ncnc(N)c3c2-c2ccc(C)cc2)cc1 0.36%
OCC1OC(n2cnc3c(NC4CCCCC4)ncnc32)C(O)C1O (configuration not stated) -1.25%
Cc1cccc(Cn2cc(/C=C/[N+](=O)[O-])c3ccccc32)c1 -2.08%
CNC(=S)N/N=C/c1ccc(N2CCOCC2)s1 -7%
COc1ccc2c(c1)C(C)=CC(C)(C)N2S(=O)(=O)c1ccc(Br)cc1 -3.36%
COC(=O)C1CC23C=CCN4CCC5(c6ccccc6NC15C2C)C43 (configuration not stated) -2.91%
Fc1ccc(NC(=S)N/N=C/c2ccc(F)c(F)c2)cc1 -0.4%
O=C1N/C(=C/c2ccc(N3CCOCC3)o2)C(=O)N1c1ccccc1 -1.34%
COc1ccc2c(c1)c(/C=N/Nc1nc3ccccc3[nH]1)c(C)n2C -10%
COc1ccc(C2=Nn3c(nnc3C3CCCCC3)SC2)cc1OC -1.13%

Potency, active:
Cc1nn(-c2ccccc2)c(C)c1/C=N/NC(=O)c1cc(-c2cccs2)[nH]n1 18.4 µM
